Experimental data from ChEMBL document CHEMBL4888484, “Replenishing the malaria drug discovery pipeline: Screening and hit evaluation of the MMV Hit Generation Library 1 (HGL1) against asexual blood stage Plasmodium falciparum ,using a nano luciferase reporter read-out” (2022).
Out of some 150,000 compounds screened, about 540 (0.36%) showed an effect of 50% or more. The list shows a part of the results.

System: Plasmodium falciparum
Experiment: Primary screen in NF54 nanoGlo assay, in single point, at 2uM, 72h; a lower Z score goes with more inhibition
Format: functional, Erythrocyte
Details: timepoint 72 hour

Q: How did the “% Inhibition” value turn out when `Cc1ccc(C2CCCN2S(=O)(=O)CCC2CCCO2)s1` (stereo not drawn) was run?
A: Its value is -11%.

Q: What about the Z score of the same molecule?
A: The Z score was 1.14.

Q: Which “% Inhibition” value does the source give for `C=C(C)CNc1cc(OC)c(OC)cc1F` here?
A: The value was -2%.

Q: What about the Z score of the same molecule?
A: The Z score was 0.23.

Q: With `Cc1cc(C(=O)N[C@@H]2COCC[C@@H]2OCC2CCC2)no1` as the molecule, how does the “% Inhibition” value read?
A: Its value is -14%.

Q: What about the Z score of the same molecule?
A: Its Z score is 1.26.

Q: What does the source list for `c1cc2c(cc1CN1CCCCCC1)CNCCO2`?
A: % Inhibition: -11%; Z score: 2.05

Q: With `COc1ccc(-c2cnn3c4c(c(C)nc23)CCN4C2CCCC2)cc1OC` as the molecule, how does the “% Inhibition” value read?
A: The value was -3%.

Q: And the Z score?
A: Its Z score is 0.46.

Q: For `Fc1ccc(-c2cc(C(F)(F)F)nc(-n3ccnc3)n2)cc1`, which “% Inhibition” value is on record?
A: Its value is -16%.

Q: And the Z score?
A: Its Z score is 2.43.

Q: Which results are given for `C[C@@H]1CN(c2cccc(C(F)(F)F)n2)C[C@H](C)N1CCO`?
A: % Inhibition: -14%; Z score: 1.43

Q: How did the “% Inhibition” value turn out when `CN(c1ccc(C(C)(C)C)cc1)S(=O)(=O)Cc1ccon1` was run?
A: Its value is -10%.

Q: What about the Z score of the same molecule?
A: Its Z score is 1.36.

Q: `CC[C@H](C)NC(=O)Cn1c(C)c(Cc2ccccc2)c(=O)n2nc(-c3ccc(C)cc3)nc12` was tested. Which “% Inhibition” value did it give?
A: The value was 20%.

Q: What about the Z score of the same molecule?
A: The Z score was -2.53.

Q: Which results are given for `Cc1nn(C)c2nc(N3CCCN(C(=O)[C@@H]4CCCO4)CC3)sc12`?
A: % Inhibition: -9%; Z score: 1.46

Q: With `Cc1ccc(-c2csc(NC(=O)c3ccc4c(c3)OCCO4)n2)cc1` as the molecule, how does the “% Inhibition” value read?
A: The value was -9%.

Q: And the Z score?
A: The Z score was 1.48.

Q: How did the “% Inhibition” value turn out when `Cc1csc(OCC2CCOCC2)n1` was run?
A: Its value is 0%.

Q: What about the Z score of the same molecule?
A: The Z score was -0.05.

Q: Which results are given for `CCCc1nc2nc(C)nn2c(O)c1NC(=O)Nc1cc(OC)cc(OC)c1`?
A: % Inhibition: -7%; Z score: 1.14

Q: What does the source list for `O=C(Cn1cccn1)N[C@@H]1[C@@H]2CCO[C@@H]2[C@@H]1C1CCCC1`?
A: % Inhibition: -6%; Z score: 1.05

Q: For `O=C(CCC1CCN(Cc2cccc3c2OCO3)CC1)NCc1cccnc1`, which “% Inhibition” value is on record?
A: The value was -9%.

Q: And the Z score?
A: The Z score was 0.85.

Q: How did the “% Inhibition” value turn out when `O=C(COc1ccccc1)N1CCCC[C@@H]1CCN1CCCCC1` was run?
A: The value was -13%.

Q: What about the Z score of the same molecule?
A: The Z score was 1.46.

Q: `CCN(CC)C(=O)C[C@]1(c2ccccc2)CC(=O)N(CC2CCCCC2)C1=O` was tested. Which “% Inhibition” value did it give?
A: Its value is -19%.

Q: And the Z score?
A: The Z score was 2.45.

Q: `c1ccc(CNc2ncc(CN3CCCn4cncc4C3)cn2)cc1` was tested. Which “% Inhibition” value did it give?
A: Its value is 7%.

Q: And the Z score?
A: Its Z score is -1.17.

Q: What does the source list for `CCn1ncn2cc(S(=O)(=O)N3CCN(c4cc(C)ccc4C)CC3)cc2c1=O`?
A: % Inhibition: 20%; Z score: -2.82

Q: `CN1CCN(c2cc3c(nn2)Oc2cc(N)ccc2N3C)CC1` was tested. Which “% Inhibition” value did it give?
A: The value was 30%.

Q: What about the Z score of the same molecule?
A: The Z score was -3.37.

Q: `O=C1CN(Cc2ccccc2)[C@@H](c2ccc(C(=O)O)cc2)N1` was tested. Which “% Inhibition” value did it give?
A: Its value is -7%.

Q: What about the Z score of the same molecule?
A: Its Z score is 1.33.

Q: What does the source list for `CCCCN1CCN(C(=O)c2cc(C(C)C)nn2C)CC1=O`?
A: % Inhibition: -14%; Z score: 2.03

Q: Which “% Inhibition” value does the source give for `CC(=O)N[C@H]1C[C@H](c2cc(N3CCN(c4ccccn4)CC3)ncn2)C1` here?
A: The value was -11%.

Q: And the Z score?
A: The Z score was 1.65.

Q: How did the “% Inhibition” value turn out when `O=c1ccc(F)cn1Cc1ncc(Cl)cc1Cl` was run?
A: Its value is 2%.

Q: And the Z score?
A: Its Z score is -0.28.

Q: How did the “% Inhibition” value turn out when `O=C(Nc1ccc(Cl)cc1F)[C@@H]1Oc2ccccc2NC1=O` was run?
A: Its value is -7%.

Q: And the Z score?
A: Its Z score is 0.82.

Q: For `CCc1ccc(NC(=O)CS(=O)(=O)c2ccc3c(c2)S(=O)(=O)N=C(C)N3)cc1`, which “% Inhibition” value is on record?
A: The value was -10%.

Q: What about the Z score of the same molecule?
A: The Z score was 1.52.

Q: What does the source list for `Cn1cc(S(=O)(=O)NC[C@H]2CCCN2c2ncccn2)cn1`?
A: % Inhibition: -12%; Z score: 1.72

Q: `O=C(N[C@H]1CS(=O)(=O)c2ccccc21)c1cc2c(s1)CCC2` was tested. Which “% Inhibition” value did it give?
A: The value was -5%.

Q: And the Z score?
A: Its Z score is 0.53.

Q: Which “% Inhibition” value does the source give for `FC1(F)[C@@H](CN2CCn3ccnc32)[C@@H]1c1ccccc1` here?
A: The value was -8%.

Q: What about the Z score of the same molecule?
A: Its Z score is 1.43.

Q: `Cc1nc(NCc2cccnc2-n2cnc3ccccc32)cc(C(C)C)n1` was tested. Which “% Inhibition” value did it give?
A: The value was 5%.

Q: And the Z score?
A: Its Z score is -0.62.

Q: For `Cn1c(C#N)ccc1C(=O)NC12CCC(C(F)(F)F)(CC1)CC2`, which “% Inhibition” value is on record?
A: Its value is -13%.

Q: What about the Z score of the same molecule?
A: Its Z score is 2.23.

Q: For `O=C(O)C[C@@H]1CCN(C(=O)COc2ccccc2)C[C@@H]1CCN1CCN(c2ccccc2)CC1`, which “% Inhibition” value is on record?
A: The value was 11%.

Q: And the Z score?
A: The Z score was -1.24.

Q: How did the “% Inhibition” value turn out when `COc1cn(C)nc1[C@H](C)Nc1cc(C#N)ncn1` was run?
A: The value was 7%.

Q: And the Z score?
A: The Z score was -1.31.

Q: Which results are given for `Cc1n[nH]cc1CNC[C@H]1CCCn2ccnc21`?
A: % Inhibition: -5%; Z score: 0.53

Q: Which “% Inhibition” value does the source give for `COc1cc([C@H]2C[C@@H]2c2ccccc2)cc(S(N)(=O)=O)c1` here?
A: The value was -7%.

Q: And the Z score?
A: The Z score was 0.91.

Q: Which “% Inhibition” value does the source give for `CC[C@](C)(NCC(=O)Nc1cccc(C(C)=O)c1)c1nccs1` here?
A: Its value is 5%.

Q: And the Z score?
A: Its Z score is -0.8.

Q: Which “% Inhibition” value does the source give for `O=C(NCCc1cccs1)c1nc(-c2cnccn2)no1` here?
A: Its value is -17%.

Q: What about the Z score of the same molecule?
A: The Z score was 2.55.

Q: What does the source list for `COc1ccc(CN2CC[C@@H]3C(=O)NCCCCCCN(Cc4ccncc4)[C@@H]3C2)cc1Cn1ccnc1`?
A: % Inhibition: 59%; Z score: -7.78

Q: `CN=C(NCc1ccccc1F)NC(C)(C)C` was tested. Which “% Inhibition” value did it give?
A: Its value is -8%.

Q: And the Z score?
A: Its Z score is 1.23.

Q: Which results are given for `Cc1cc(C)nc(N(C(=O)CCCOc2ccc(Cl)cc2Cl)C(=O)CCCOc2ccc(Cl)cc2Cl)n1`?
A: % Inhibition: 3%; Z score: -0.36

Q: `Cc1cc(CCC(=O)Nc2nc(=O)cn[nH]2)ccc1Br` was tested. Which “% Inhibition” value did it give?
A: Its value is 2%.

Q: What about the Z score of the same molecule?
A: Its Z score is -0.25.

Q: `CC1CCN(CC(=O)Nc2ccn(-c3ccncc3)n2)CC1` was tested. Which “% Inhibition” value did it give?
A: The value was 1%.

Q: What about the Z score of the same molecule?
A: Its Z score is -0.23.

Q: Which “% Inhibition” value does the source give for `Cc1ccc(S(=O)(=O)CC#N)c(C)c1` here?
A: Its value is -8%.

Q: What about the Z score of the same molecule?
A: Its Z score is 1.46.

Q: `Cc1ccc(CNC(=O)c2cn(C3CCCCC3)c(=O)c3nnsc23)cc1` was tested. Which “% Inhibition” value did it give?
A: Its value is -16%.

Q: What about the Z score of the same molecule?
A: Its Z score is 2.38.

Q: Which results are given for `COc1cc(C(=O)NC[C@H]2CCN(c3ccccc3F)C2)ncn1`?
A: % Inhibition: -10%; Z score: 1.04

Q: Which “% Inhibition” value does the source give for `O=C(C1CCOC1)N1CCC(c2cccs2)C1` (stereo not drawn) here?
A: The value was -7%.

Q: And the Z score?
A: Its Z score is 1.24.

Q: How did the “% Inhibition” value turn out when `Cc1cc(C)n(CCC(=O)N2C[C@H]3COCC[C@@]3(O)[C@@H]3COCC[C@@H]32)n1` was run?
A: Its value is -13%.

Q: And the Z score?
A: The Z score was 2.18.

Q: For `O=C(c1cccc(Cl)c1)N(Cc1ccccc1Cl)[C@H]1CCS(=O)(=O)C1`, which “% Inhibition” value is on record?
A: Its value is -15%.

Q: And the Z score?
A: Its Z score is 1.33.

Q: How did the “% Inhibition” value turn out when `CC(=O)N[C@H]1C[C@@H](c2cc(C)cc(F)c2)O[C@@H](C2CCCCC2)C1` was run?
A: Its value is -15%.

Q: And the Z score?
A: The Z score was 2.04.

Q: Which “% Inhibition” value does the source give for `Cn1ncc2cc(C(=O)Nc3cccc(Cn4nc5ccccn5c4=O)c3)cnc21` here?
A: The value was -11%.

Q: And the Z score?
A: The Z score was 1.11.

Q: For `O=C(O)Cn1nccc1[C@H]1CCCN(Cc2ccc3[nH]ccc3c2)C1`, which “% Inhibition” value is on record?
A: Its value is -2%.

Q: And the Z score?
A: The Z score was 0.43.

Q: With `O=C(Cn1cc(-c2ccccc2)c2ncn(C3CC3)c(=O)c21)Nc1ccc(F)c(Cl)c1` as the molecule, how does the “% Inhibition” value read?
A: The value was -8%.

Q: And the Z score?
A: Its Z score is 1.16.

Q: What does the source list for `O=C(Nc1cccc2[nH]ncc12)c1ccco1`?
A: % Inhibition: 35%; Z score: -0.8

Q: Which results are given for `CCN(C(=O)CCCn1cncn1)c1cc(C)cc(C)c1`?
A: % Inhibition: -4%; Z score: 0.53
